# Results as given in PubChem BioAssay AID445 (National Center for Advancing Translational Sciences (NCATS), 2006).
# In all, about 110,000 compounds went through this assay and about 40 (0.04%) were called active. This list was built around the results that the source calls inconclusive (neither active nor inactive); the mix of calls is not that of the screen. Calls follow the shape of the dose curve; as a rule, active = well fitted curve in the direction sought with a large enough effect in the signal ratio (not every such curve was filed as active); inconclusive = small, poorly fitted or top-dose-only effect, or a change in a side signal; inactive = flat fitted curve, though single readings scatter; the % refers to the signal ratio. Where the call is inconclusive, the potency comes from a doubtful curve fit.
# Test: IkB Signaling;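 as to IkBa stabilization activation: 0% = basal untreated cells and 100% = reference inhibitor full response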
# Details: ABC-DLBCL IkBa-CBG/CBR dual luciferase ratio (green luciferase fused to IkBa over red control in OCI-Ly3 lymphoma cells), 4 h, scaled: untreated 0%
# Outline: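 Luminescence ratio of IκBα-fused green versus native red beetle luciferase in OCI-Ly3 cells, 4 h post-doxycycline with compound; red signal alone, scaled from basal (0%) to zero light (-100%), flagged nonspecific or cytotoxic effects.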
# [1] = IkBa stabilization activation: at 57.1 µM (top of the series), proteasome inhibitor 100% unless noted
# Potency is read from the fitted curve at half-maximal effect.
structure (smiles),measurement,setting,value
COCc1cc(C)nc(SCC(=O)Nc2ccc3c(c2)OCO3)c1C#N,IkBa stabilization activation,[1],inactive
Cc1ccc2nc(SCC(=O)O)nc(C)c2c1,IkBa stabilization activation,[1],inactive
COc1ccc(Br)cc1CNC(=O)C1CCCN(S(C)(=O)=O)C1 (configuration not stated),Potency,[1],"inconclusive: 3.98 µM [signal inhibitor, partial curve]"
CNc1ncnc2c1cnn2-c1ccc(C)c(C)c1,IkBa stabilization activation,[1],inconclusive: 1.22% [signal inhibitor]
CCOc1ccc(OCC)c(NC(=O)C2COc3ccccc3O2)c1 (configuration not stated),IkBa stabilization activation,[1],inactive
COc1ccc(CCNc2nc(N3CCCCC3)nc(N3CCCCC3)n2)cc1OC,IkBa stabilization activation,[1],inconclusive: 2.43% [signal inhibitor]
CCN(CC)c1ccc(NC(=O)c2nc3nc(C)cc(C(F)F)n3n2)cc1,IkBa stabilization activation,[1],inactive
Cc1sc2ncnc(NCC(c3ccco3)N(C)C)c2c1C (configuration not stated),IkBa stabilization activation,[1],inactive
N[C@@H]1[C@@H]2[C@@H]3C[C@H]4N(CC[C@@]14C(=O)C(=O)O)CC3=CCO[C@@H]2CC(=O)O,IkBa stabilization activation,[1],"inactive: -0.0935% [at 11.4 µM, scaled: untreated 0%, proteasome inhibitor 100%]"
COc1cc(NC(=O)c2cccc3c2C(=O)N(C2CCCCC2)C3)cc(OC)c1OC,IkBa stabilization activation,[1],inconclusive: -2.23% [signal inhibitor]
Oc1ccccc1-c1nc(/C=C/c2ccccc2Cl)nn1-c1ccccc1,IkBa stabilization activation,[1],inconclusive: 13.9% [signal inhibitor]
Cc1ccc(C(=O)Nc2cc3c(cc2C)n(C)c(=O)c(=O)n3C)cc1,IkBa stabilization activation,[1],inactive
Cc1cc(O)c2c(c1)C(=O)c1cc(O)cc(O)c1C2=O,IkBa stabilization activation,[1],inconclusive: -1.2% [signal inhibitor]
same,IkBa stabilization activation,"at 11.4 µM (top of the series), proteasome inhibitor 100%",inactive: -0.133%
same,IkBa stabilization activation,"at 57.1 µM (top of the series), proteasome inhibitor 100%",inactive: -7.02%
CCOC(=O)c1c(-c2ccccc2)oc2ccc(NS(=O)(=O)c3cc(C)c(C)cc3C)cc12,IkBa stabilization activation,[1],inconclusive: 4.73% [signal inhibitor]
O=C(CN1N=C(c2ccc(Cl)cc2)CCC1=O)NCCc1ccc(Cl)cc1,IkBa stabilization activation,[1],inconclusive: 1.02% [signal inhibitor]
COc1ccc(OC)c(CNC(=O)c2ccc(Sc3ccc(C)cc3)c(N)c2)c1,IkBa stabilization activation,[1],inconclusive: 4.17% [signal inhibitor]
Cc1ccc(NCc2nc3ccccc3n2C)cc1,IkBa stabilization activation,[1],inactive
COc1ccc(-n2nnc3c(=O)n(Cc4cc(C)ccc4C)cnc32)cc1,IkBa stabilization activation,[1],inactive
Cc1ccc(NC(=O)CN2C(=O)CCc3cc(S(=O)(=O)N4CCOCC4)ccc32)cc1F,IkBa stabilization activation,[1],inconclusive: 2.94% [signal inhibitor]
CCCc1nn2c(=O)cc(COC(=O)c3ccccc3NC(=O)COc3ccccc3F)nc2s1,IkBa stabilization activation,[1],inconclusive: 13.6% [signal inhibitor]
COc1ccc(NC(=O)c2oc3ccc(S(=O)(=O)N4CCCCC4)cc3c2C)cc1,IkBa stabilization activation,[1],inconclusive: 2.44% [signal inhibitor]
CCOc1ccc(CNC(=O)C2Cc3ccccc3N2C(=O)CC)cc1OC (configuration not stated),IkBa stabilization activation,[1],inactive
Cc1nc2c(C(=O)NCCCN(CC(C)C)CC(C)C)cnn2c(C)c1Cc1c(F)cccc1Cl,IkBa stabilization activation,[1],inconclusive: -2.38% [signal inhibitor]
Cc1cc(C)cc(OCC(=O)Nc2c(C)ccc3nsnc23)c1,IkBa stabilization activation,[1],inactive
O=C1c2ccccc2NC(c2cnc3ccccc3n2)N1O (configuration not stated),Potency,[1],"inconclusive: 25.1 µM [signal inhibitor, partial curve]"
COc1ccc(NC(=O)CSc2nc(-c3ccco3)cc(C(F)(F)F)n2)cc1OC,IkBa stabilization activation,[1],inconclusive: 5.82% [signal inhibitor]
CCOc1ccc(N(CC)S(=O)(=O)c2cc(Br)cc3c2N(C(C)=O)C(C)C3)cc1 (configuration not stated),IkBa stabilization activation,[1],inconclusive: -3.71% [signal inhibitor]
CCCCN(C)CCCNC(=O)Cn1ncc2c3ccccc3n(Cc3ccccc3)c2c1=O,IkBa stabilization activation,[1],inactive
Cc1cccc(NC(=O)CSc2nccn2Cc2ccc(F)cc2)c1C,IkBa stabilization activation,[1],inactive
COc1ccc(-c2cn(-c3ccc(C)cc3)c(S(=O)(=O)CC(=O)Nc3ccc(F)cc3)n2)cc1,IkBa stabilization activation,[1],inconclusive: 9.29% [signal inhibitor]
N#Cc1cc2ccccc2nc1SCc1ccccn1,IkBa stabilization activation,[1],inconclusive: 7.04% [signal inhibitor]
Cc1ccc(Cc2c(C)nc3nc(SCC(=O)NC4CCC(C)CC4)nn3c2C)cc1 (configuration not stated),IkBa stabilization activation,[1],inactive
COc1ccc(CCC(=O)Nc2ccc(-c3noc(-c4ccc(OC)c(OC)c4)n3)cc2)cc1,IkBa stabilization activation,[1],inactive
O=C(Nc1ccc(Cl)c(Cl)c1)N1CCSC1c1ccco1 (configuration not stated),IkBa stabilization activation,[1],inconclusive: 1.72% [signal inhibitor]
O=C(O)CSc1nnc(-c2ccccc2O)n1Cc1ccccc1,IkBa stabilization activation,[1],inactive
